Reference: the BET-seq Pho4 binding data (Le et al. 2018)
Some of the results follow. Values were computed here from the reads of four pooled replicates and scatter widely.

Molecular target: T1, Pho4 (S. cerevisiae) (UniProt P07270)
T1 sequence: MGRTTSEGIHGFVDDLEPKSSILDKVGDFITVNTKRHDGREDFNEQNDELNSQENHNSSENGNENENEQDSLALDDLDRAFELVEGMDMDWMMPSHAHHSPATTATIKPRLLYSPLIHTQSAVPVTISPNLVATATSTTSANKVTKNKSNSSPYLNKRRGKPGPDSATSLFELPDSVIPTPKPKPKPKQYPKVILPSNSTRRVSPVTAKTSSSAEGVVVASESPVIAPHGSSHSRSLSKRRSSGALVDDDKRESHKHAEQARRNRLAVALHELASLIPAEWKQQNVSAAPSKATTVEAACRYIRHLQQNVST
Experiment: relative binding free energy (BET-seq); higher = weaker binding
Details: reference: library average

Sequence	relative binding free energy
TTGTACACGTGTTAGG	0.13 kcal/mol
GGGTTCACGTGGCTTA	0.25 kcal/mol
GAGGGCACGTGGGTTA	-0.12 kcal/mol
AGGGGCACGTGTGAAT	-0.04 kcal/mol
TCGGGCACGTGGTAGA	-0.05 kcal/mol
TACTACACGTGGTAGG	0.03 kcal/mol
TGTCACACGTGGGTAT	-0.1 kcal/mol
AATTTCACGTGGCTTA	0.22 kcal/mol
GGTTACACGTGAGTAC	0.43 kcal/mol
CTTCACACGTGGTGTG	0.07 kcal/mol
TGAAGCACGTGTGCTG	-0.07 kcal/mol
TCCGGCACGTGAGGGG	0.14 kcal/mol
ATAAGCACGTGGGGAT	-0.22 kcal/mol
GGGCACACGTGGCGGG	-0.01 kcal/mol
TGCGGCACGTGGTGGA	-0.12 kcal/mol
GATGTCACGTGTTCTT	0.15 kcal/mol
TGTTGCACGTGATGCT	-0.11 kcal/mol
TGGCTCACGTGTTAAT	0.31 kcal/mol
CTATGCACGTGTGGAG	0.01 kcal/mol
GGTAACACGTGAATTG	0.15 kcal/mol
TTTTCCACGTGGTGCG	-0.07 kcal/mol
CGGATCACGTGTCGTG	0.14 kcal/mol
GTATACACGTGAAGTA	0.37 kcal/mol
TTGATCACGTGGACAT	0.28 kcal/mol
CAAGTCACGTGTGATT	0.21 kcal/mol
GGGTCCACGTGCCGGT	0.11 kcal/mol

Sequence	relative binding free energy
TTGATCACGTGTAGTA	0.21 kcal/mol
TACTTCACGTGATTGT	0.18 kcal/mol
ATGCGCACGTGTTAGG	-0.13 kcal/mol
TGCGACACGTGGGCGT	-0.3 kcal/mol
TCTGGCACGTGCAGGG	-0.07 kcal/mol
ATTGTCACGTGCAAAG	0.1 kcal/mol
GTCGGCACGTGTTTTA	0.14 kcal/mol
TGACTCACGTGTTTGG	0.23 kcal/mol
GTGGTCACGTGGGACT	0.04 kcal/mol
ATCTTCACGTGTGAGG	0.17 kcal/mol
TGGTTCACGTGCACGG	0.28 kcal/mol
ATGAACACGTGGGGCT	-0.06 kcal/mol
ATTGTCACGTGGAATG	0.29 kcal/mol
TTTGACACGTGCGGAA	0.02 kcal/mol
GGTGTCACGTGGAAAA	0.43 kcal/mol
TTTCGCACGTGGTCTT	-0.26 kcal/mol
ATAGGCACGTGGTCGA	-0.08 kcal/mol
TAGGCCACGTGTCGTG	-0.08 kcal/mol
AGTGTCACGTGACGGT	0.17 kcal/mol
TTTGACACGTGTGTCT	-0.04 kcal/mol
CAGTGCACGTGGGTCG	-0.1 kcal/mol
GTGTTCACGTGGCGTT	0.17 kcal/mol
GTGTGCACGTGCTGTA	-0.09 kcal/mol
AAGTTCACGTGATGAT	0.36 kcal/mol
TTGTGCACGTGAGCTG	0.21 kcal/mol
ATCTGCACGTGCTGGT	0.06 kcal/mol

Sequence	relative binding free energy
CGTTGCACGTGCGGGG	-0.04 kcal/mol
AAATACACGTGTGTAT	0.05 kcal/mol
TGTAACACGTGAAGGT	0.26 kcal/mol
CAAGGCACGTGTGTTA	-0.09 kcal/mol
TGGGCCACGTGTTGTT	-0.15 kcal/mol
GTATGCACGTGAGGAA	0.26 kcal/mol
AGGCACACGTGCGGGG	-0.05 kcal/mol
CGGTGCACGTGCGCGG	-0.17 kcal/mol
GGTTTCACGTGGGTCC	0.37 kcal/mol
TTTAACACGTGGGGGG	-0.14 kcal/mol
AGATGCACGTGGCGTA	-0.1 kcal/mol
ATTTACACGTGCTATT	0.02 kcal/mol
GTAAGCACGTGCGTTA	-0.04 kcal/mol
AGTTGCACGTGGCTTG	-0.06 kcal/mol
TTTTACACGTGTTGTA	0.11 kcal/mol
GAATACACGTGCGGTG	0.15 kcal/mol
AGTAGCACGTGGAATG	-0.06 kcal/mol
TGAGTCACGTGTCTTT	0.25 kcal/mol
GTGTCCACGTGGTTTG	0.07 kcal/mol
CTAAGCACGTGTGAGG	-0.02 kcal/mol
TGGAGCACGTGCAAGG	0.02 kcal/mol
GTTAACACGTGGGTGA	-0.22 kcal/mol
GTAGACACGTGGCAGT	0.03 kcal/mol
GTTTACACGTGGAGTG	0.16 kcal/mol
TTTATCACGTGCGTAT	0.19 kcal/mol
ACGTGCACGTGGTTGT	-0.23 kcal/mol

Sequence	relative binding free energy
GGTTGCACGTGGCCTT	-0.11 kcal/mol
GATGTCACGTGCATGT	0.05 kcal/mol
TTTTCCACGTGTGGTT	0.09 kcal/mol
TGCGGCACGTGGTTTT	-0.14 kcal/mol
GGTCGCACGTGATAGT	0.22 kcal/mol
GACAGCACGTGCGGTG	0.03 kcal/mol
CAGGTCACGTGGTCGT	-0.1 kcal/mol
TCGTGCACGTGACGTG	0.05 kcal/mol
TTTGACACGTGGAAAT	0.06 kcal/mol
GGATTCACGTGGGTAT	0.12 kcal/mol
TAGTTCACGTGAACGG	0.36 kcal/mol
TAAGGCACGTGGTAAG	-0.09 kcal/mol
GAGTACACGTGAGGGA	0.39 kcal/mol
TCTGTCACGTGGCAGG	0 kcal/mol
AGGTTCACGTGGGTGC	0.19 kcal/mol
GTGGTCACGTGTTGGC	0.15 kcal/mol
GTAACCACGTGGGGTA	-0.24 kcal/mol
CTCGTCACGTGCGGGT	0.05 kcal/mol
TAAGACACGTGTTTGG	0.05 kcal/mol
GAGGTCACGTGCTGTT	0.16 kcal/mol
ATCTGCACGTGTCGTG	-0.02 kcal/mol
GGTTTCACGTGATGTC	0.39 kcal/mol
CGGGGCACGTGTTGTC	0.01 kcal/mol
CACGGCACGTGGTTGT	-0.09 kcal/mol
TTTGGCACGTGAGGGT	0.22 kcal/mol
TGCGTCACGTGATGGT	0.16 kcal/mol

Sequence	relative binding free energy
ATGTGCACGTGACTGT	0.09 kcal/mol
GGGTACACGTGCTTTA	0.09 kcal/mol
GGTTTCACGTGTACTG	0.18 kcal/mol
ACTTGCACGTGGCGTT	-0.06 kcal/mol
ACCTGCACGTGTTGGG	0.06 kcal/mol
TAGGACACGTGTGAGA	0.13 kcal/mol
TTGTGCACGTGTACGT	-0.02 kcal/mol
TGGGTCACGTGATAAG	0.28 kcal/mol
ATCGGCACGTGGAATG	-0.04 kcal/mol
GTTGACACGTGCGGAT	0.16 kcal/mol
GATTTCACGTGGTGGC	0.32 kcal/mol
GTTTACACGTGGTGAT	0.13 kcal/mol
TAGGGCACGTGGGCGT	-0.33 kcal/mol
TCGTTCACGTGTTTCG	0.38 kcal/mol
AAGAACACGTGTGGGA	-0.01 kcal/mol
GAGTTCACGTGTTGTG	0.32 kcal/mol
GTTTCCACGTGGGAGG	0 kcal/mol
GACGGCACGTGGGCGA	-0.1 kcal/mol
GTTGGCACGTGCTTTA	-0.15 kcal/mol
TTGAACACGTGTCTGT	0.02 kcal/mol
AGGAGCACGTGTGTGG	-0.03 kcal/mol
AGGTACACGTGAAGTA	0.22 kcal/mol
TGTGTCACGTGATGGA	0.16 kcal/mol
TGGCACACGTGGCGGT	0.05 kcal/mol
TAAGACACGTGTCGGG	0.08 kcal/mol
AGTGTCACGTGCATGG	0.13 kcal/mol

Sequence	relative binding free energy
AGGTGCACGTGTATGC	-0.02 kcal/mol
GTAGGCACGTGTACGT	0.09 kcal/mol
ATGGTCACGTGGCTAA	0.18 kcal/mol
ATTTTCACGTGGTGTG	0.25 kcal/mol
AATTGCACGTGGTGGT	-0.12 kcal/mol
TAGGGCACGTGATTTC	0.02 kcal/mol
GCGGGCACGTGATGTG	-0.02 kcal/mol
GGAACCACGTGTTGTG	-0.01 kcal/mol
ATTGTCACGTGGATAT	0.02 kcal/mol
ACTGGCACGTGGGAGT	-0.23 kcal/mol
AGGGCCACGTGGTTAA	-0.13 kcal/mol
AGTTCCACGTGCAGGG	0.1 kcal/mol
ATACGCACGTGCGTGT	-0.07 kcal/mol
GTGAACACGTGGGTAG	-0.09 kcal/mol
CATCGCACGTGGAGTG	0.03 kcal/mol
AGAGTCACGTGATTGG	0.29 kcal/mol
CCAGGCACGTGATGGG	-0.07 kcal/mol
GGTGACACGTGGGACG	0.03 kcal/mol
TCGTTCACGTGTGGAG	0.19 kcal/mol
ATAGGCACGTGGTGAT	-0.25 kcal/mol
TTGAGCACGTGGATTG	-0.06 kcal/mol
ATCGGCACGTGTTGTT	-0.02 kcal/mol
GTGTTCACGTGAGCCG	0.42 kcal/mol
CGGTTCACGTGGCGGC	0.28 kcal/mol
CAGGTCACGTGCGTGC	0.19 kcal/mol
TTATGCACGTGTGATG	0.09 kcal/mol

Sequence	relative binding free energy
GGGGTCACGTGTTGGT	0.22 kcal/mol
AGTCGCACGTGGGTTA	-0.29 kcal/mol
GTACTCACGTGGTAGG	0.18 kcal/mol
GTTAGCACGTGAGTTG	0.23 kcal/mol
AGTAACACGTGGATGA	0.01 kcal/mol
GGTCTCACGTGAGATT	0.48 kcal/mol
TGTTTCACGTGAAGTT	0.53 kcal/mol
ATTTACACGTGCTTGG	-0.07 kcal/mol
GCGGGCACGTGGTTTT	0 kcal/mol
TAGAACACGTGGGGTC	-0.01 kcal/mol
GGTGGCACGTGTCTAT	0.03 kcal/mol
GGGGGCACGTGGCTGT	-0.17 kcal/mol
TAGGTCACGTGCCGTG	-0.01 kcal/mol
AGAGGCACGTGTTAGG	-0.03 kcal/mol
AGGGACACGTGTGTCA	-0.05 kcal/mol
ATTAGCACGTGATGCG	0 kcal/mol
GTCTTCACGTGAGATT	0.36 kcal/mol
AGTCGCACGTGTGTAT	0.11 kcal/mol
TAATACACGTGGGTGG	-0.13 kcal/mol
GGTCGCACGTGAGTCG	0.22 kcal/mol
GAAGGCACGTGGGTGC	-0.19 kcal/mol
CTGTACACGTGGGTGG	-0.11 kcal/mol
GAGTGCACGTGATGCT	0.25 kcal/mol
AGTCTCACGTGGGCGT	-0.02 kcal/mol
GGCTTCACGTGGGGTG	0.22 kcal/mol
TTGAACACGTGGAGAT	0.01 kcal/mol

Sequence	relative binding free energy
CTGGTCACGTGTTGCT	0 kcal/mol
TCAAGCACGTGGGTAT	-0.13 kcal/mol
TCGGGCACGTGTGCAG	0 kcal/mol
TTTTACACGTGTGCTA	0.1 kcal/mol
TAAGTCACGTGGAGTA	0.07 kcal/mol
TCAAGCACGTGATGTG	0.02 kcal/mol
GTGGACACGTGGGACG	0.03 kcal/mol
ATAATCACGTGATTAT	0.22 kcal/mol
GGTATCACGTGGGTGT	0.04 kcal/mol
CAGAACACGTGGGGTA	0.04 kcal/mol
GGGAGCACGTGGGAAT	-0.12 kcal/mol
ATTGACACGTGATGAA	0.29 kcal/mol
AGGATCACGTGGGTCT	0 kcal/mol
CTGTTCACGTGACAGT	0.33 kcal/mol
TGTAGCACGTGCGGGG	-0.14 kcal/mol
GGCCGCACGTGAGGGG	0.23 kcal/mol
ATGGGCACGTGGCTCG	-0.01 kcal/mol
GGGGTCACGTGTACTG	0.26 kcal/mol
TTCGGCACGTGGTGGA	-0.16 kcal/mol
AGCGTCACGTGTTAAT	0.06 kcal/mol
TTTTCCACGTGCAGGT	0.13 kcal/mol
AGAGTCACGTGCGGGT	0.05 kcal/mol
TTGGTCACGTGGGTCC	-0.06 kcal/mol
GTTGACACGTGGGCTT	0.05 kcal/mol
CGGGTCACGTGAGTGT	0.23 kcal/mol
GTATGCACGTGGCCGT	-0.06 kcal/mol

Sequence	relative binding free energy
TACTGCACGTGTTTTG	0.01 kcal/mol
GGTTGCACGTGATAAG	0.12 kcal/mol
GGTATCACGTGGGATA	0.06 kcal/mol
AGGAACACGTGTGAAT	0.18 kcal/mol
TCTGGCACGTGTTCTG	0.08 kcal/mol
TTGTCCACGTGGAATG	0.01 kcal/mol
AGTTCCACGTGTGGTC	0.09 kcal/mol
TATGTCACGTGAGACT	0.28 kcal/mol
ATCCACACGTGTGGGG	0.19 kcal/mol
GTGGACACGTGAGGCT	0.23 kcal/mol
TTGTCCACGTGAAGGT	0.25 kcal/mol
AGGGTCACGTGAGAGC	0.24 kcal/mol
TTGGGCACGTGTACGA	-0.02 kcal/mol
GGAGTCACGTGGTTTC	0.27 kcal/mol
GAGGTCACGTGAGTGC	0.38 kcal/mol
GAGTTCACGTGTTTCT	0.42 kcal/mol
GTTAGCACGTGAGTGC	0.28 kcal/mol
TTGATCACGTGCGTGG	-0.03 kcal/mol
ACTGTCACGTGAAGTG	0.38 kcal/mol
GTTGACACGTGTTAAT	0.06 kcal/mol
TACGGCACGTGTCGGG	-0.02 kcal/mol
TCGTGCACGTGCGGTA	-0.01 kcal/mol
